# Experimental data from the supplement of paper PMC11417369.
# ± gives the standard deviation of the averaged measurements. The list shows a part of the results.
# Test system: PfAP2-I AP2 domain 3 (GST-tagged)
# Test: gcPBM binding intensity (ln(normalized median fluorescence intensity)); higher = stronger DNA binding
# How it was run: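 GST-tagged P. falciparum DNA-binding domains produced in E. coli were incubated for 1 h on an Agilent 4 × 180k array of primer-extended double-stranded 36-bp intergenic genomic probes with negative controls. Binding intensity is the highest Masliner-normalised natural-log median intensity across replicate spots of either probe orientation, with bound protein detected by Alexa488 anti-GST antibody at 488 nm.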
row,Sequence,gcPBM binding intensity (ln)
1,TTTTTTTATATTTTTAGTACACATTGGTATATATAT [XGTACX_site4114],8.49 ± 0.29
2,TATTTTTTTAAAAATACACACATAAAATCATGAAAA [CACACA_site1085],7.84 ± 0.61
3,ATATATATATGTCAAAGTACTAAAAATATATACATA [XGTACX_site3397],9.025 ± 0.035
4,CATAGAATAATTTATTGTACGTGCATGCTATTTTTT [XGTACX_site8984],8.37 ± 0.66
5,AAAATAAATTTTTATGTTATATATACAATTTCTCTA [CACACA_negctrl_site1760],7.32 ± 0.62
6,AATGCTATCTTCTTATTTTTCATACACAACATGAAC [CACACA_negctrl_site1809],8.1 ± 0.73
7,TATAATATTTATATAACACACATATATATTTATTTA [CACACA_site280],7.58 ± 0.28
8,TATACATTTTTATAAAGTACACAAAAATAAATATAA [XGTACX_site1647],7.89 ± 0.27
9,ATTAAATATATGATGTGTACATATTCGTGTATGTTT [XGTACX_site2141],7.75 ± 0.59
10,AAACAGAATACATATACACACATACAAAAAAGTGCA [CACACA_site8235],7.95 ± 0.35
11,TTATGAAATAGAATAACACACATATTTATATATGTG [CACACA_site2050],7.42 ± 0.59
12,TTTAATGAAAGAAACACATACGTATCAAAATATATG [TGCATGCA_negctrl_site510],7.71 ± 0.69
13,TACGTTGTATATTTTTGTACATATTGAATTACAAAA [XGTACX_site5906],7.75 ± 0.23
14,TTTTAATAATTTATAAAAAAAAAAAAAAAATAAATA [TGCATGCA_negctrl_site419],7.42 ± 0.33
15,GTGTACAAAATATGGTAATAAAGTAGTTACATGAAT [CACACA_negctrl_site1775],8.04 ± 0.72
16,CTAAATTGTTAATAGAGTACATTTGTATAATATAAG [XGTACX_site594],7.68 ± 0.35
17,AATAAAATATAATAATTAATATATATATATATATAA [GTGCAC_negctrl_site457],7.7 ± 0.35
18,TTATGTTGTAAATACACACATACATATACATACACA [CACACA_site733],7.84 ± 0.4
19,TATGTGAAATAAGGATGTACAATTTTGATTTCCCCA [XGTACX_site8389],7.83 ± 0.56
20,CATATAAACAATAACACACACCTAGGTACATGGAAA [CACACA_site4615],8 ± 0.56
21,CTTTTTAATTTATCGACACACGCATGAATAGAAATT [CACACA_site9112],7.9 ± 0.47
22,AAAGCAAATAATAAGTGTACGGGTCAATATATGCGT [XGTACX_site1519],8.09 ± 0.61

row,Sequence,gcPBM binding intensity (ln)
1,GAACAATATATTTGCACACAAAAAATATATATTTAT [CACACA_site3317],9.54 ± 0.29
2,TAGATTTAAAAAAAAAAAAAATTTTTTTTTTTTTTT [TGCATGCA_negctrl_site593],8.4 ± 0.84
3,GAATACTCATTTCTTTGTACATATATATGTGTATTT [XGTACX_site6411],7.73 ± 0.59
4,ATACAAGTATTAATTACACACTCAAAAAGAAAAAAC [CACACA_site5287],7.8 ± 0.61
5,GGATAAAAAATATGTACACACATATAGATATCTATA [CACACA_site2693],7.89 ± 0.31
6,GTTTACATCATTCTGGTGCAAAAAAAAAAAAAAATA,10.7 ± 0.27
7,TTCATATGGAATAAAAGTACGTATTAAAACAATTTT [XGTACX_site8742],7.93 ± 0.52
8,CAGACATATTAAAAGAGTACATATATATATATATAT [XGTACX_site1158],9.6 ± 0.36
9,TGTTTATTACTCAGGTGTACTCAATTTTTTTTTTTT [XGTACX_site3470],8.03 ± 0.38
10,TACACAAATATATACATACACACATATATACGCATA [CACACA_site394],7.72 ± 0.47
11,TAATATTGACTATATACACACATATATATATATATA [CACACA_site575],9.39 ± 0.57
12,TATTTACAAAAAAAATATAAAAAATATAAAATATAT [CACACA_negctrl_site575],7.39 ± 0.42
13,TGTATAATATTTGGTGCACACAAATTAACAACTGTT [CACACA_site9245],11.1 ± 0.54
14,AATATTAAAATAAAAAGTACTTATTTATGTATGTTG [XGTACX_site2682],7.75 ± 0.32
15,TTTATATAACAACAAAATGGAAATATATATGTATGT [TGCATGCA_negctrl_site98],7.95 ± 0.57
16,AAAAAAAAAAAAGAACGTACAAATTAATTTATAGAA [XGTACX_site5584],7.7 ± 0.35
17,ATATATCTATAAAAGGCTTCCCACTTTTTTTGTCAA [TGCATGCA_negctrl_site332],7.55 ± 0.95
18,ATAATAAAAAAAATTAGTACATATATAAATATAAAT [XGTACX_site1937],7.51 ± 0.42
19,TAATTTCTTAGGTATTGTACAAATATTATATGATAT [XGTACX_site256],7.55 ± 0.59
20,AGTACATTTTTGTGTGTGCACTAATATTATATACTT [GTGCAC_site9568],11.3 ± 0.62
21,ATAAAAAAAAAAAAAAGTACACATATAAAAGTATTG [XGTACX_site8265],7.83 ± 0.26
22,TAAATAATATCTATCACACACGCATAAATACAGATA [CACACA_site5449],7.71 ± 0.25

row,Sequence,gcPBM binding intensity (ln)
1,ATTTATTTTATTTTCACACACAAAAATAAATATCCG [CACACA_site2414],7.83 ± 0.64
2,AAATTTATGTGTGCCTGTACATATCAAAGATTTAAG [XGTACX_site8547],7.93 ± 0.34
3,CGCAATTAAAATATGTGTCCTCATTTTATAACATTT [XGTACX_site5340],7.73 ± 0.58
4,ATTCTACCACGCGATATACACACTTGTAGACATCTT [CACACA_site188],8.21 ± 0.68
5,TATAATGTATGTAGTGCACACCTCTATAATATATTA [CACACA_site8560],10.9 ± 0.64
6,AAATGAATAAATAGGTCACACACAAATATATATAAA [CACACA_site8764],7.79 ± 0.59
7,ATATATATATATATATGTACATATACATATGTGCAA [XGTACX_site5604],9.07 ± 0.66
8,AATAAATAAAGAAGTACACACATATATATATATATA [CACACA_site4314],9.26 ± 0.23
9,TATTTTTAAAATATAAGTAAAAAAATAATATAAACT [TGCATGCA_negctrl_site283],7.88 ± 0.67
10,ATGTAATATTTACAACGTACAAATTATAAACATATT [XGTACX_site603],7.71 ± 0.57
11,TCATATTGGCTGTTCTGTACTTATAAGTTTTAAAGA [XGTACX_site5593],7.9 ± 0.51
12,TTTGTTAATATAAAAACACACAAAAATAACATAAAA [CACACA_site2619],8.04 ± 0.58
13,TATATTAAAAAAGAGGTGCATTCGTAAGAGGTTAAA [GTGCAC_site9720],10.18 ± 0.042
14,AATCCCCACTTGTCAAGTACATATATCATGGATGAA [XGTACX_site3486],7.82 ± 0.58
15,TATTTATAACAAAGGTTAAATTAAAACTAATCCACA [TGCATGCA_negctrl_site3],7.89 ± 0.24
16,GCCAAAATCTAATTTACACACTTATTAAATAATTAC [CACACA_site6251],7.74 ± 0.57
17,GACATAGTCATATACTGTACTTTATATTATTGTGTA [XGTACX_site6636],7.49 ± 0.46
18,TTTTTTTTTTTTTTTTGTACTTATAAAAAATTTTTT [XGTACX_site1249],8.08 ± 0.47
19,TACAGATATAAACACACACACATATATATATATATA [CACACA_site4846],9.46 ± 0.66
20,TTTTTTTTCATTGGTTGTACAATATTTATAATTCAC [XGTACX_site7036],8.24 ± 0.52
21,TTATGTAAAAAAAAAAAAAAAAAAAAAAAAAAAAAA [CACACA_negctrl_site984],8.46 ± 1.1
22,GATAAAGTACTTTATACACACAAATATTTATTTATA [CACACA_site7795],7.91 ± 0.28

row,Sequence,gcPBM binding intensity (ln)
1,TCTTCATATAAGAACACATGCAGATTTTTATTATTG [TGCATGCA_site682],7.79 ± 0.65
2,AAAAAAAAAAAAAAACGTACACATATTATGTTATTT [XGTACX_site5264],8.44 ± 0.5
3,CATATAATATAATTATGTACATATATAATAATATAC [XGTACX_site5278],7.64 ± 0.34
4,AAAAAAAAGTTGTATTGTACAAAAAAAAAAAAAAAA [XGTACX_site8334],8.06 ± 0.67
5,TCATAAAAACTAATACGTACTTAAAAATATGAACTT [XGTACX_site2939],7.63 ± 0.43
6,GTACAAAAAAAAATAAAATACATATATATATATATA [GTGCAC_negctrl_site364],9.51 ± 0.22
7,AAAATATTTCATATATGTACTTAAAAAAAAAAAAAA [XGTACX_site5399],8.05 ± 0.16
8,TATTATATATATGTTGACATATTTGTACACTCCACT [TGCATGCA_negctrl_site200],8.17 ± 0.31
9,GAATATATAAGATACACACACAAATTAAATATAAAA [CACACA_site2781],7.79 ± 0.57
10,AAAAAATTCATATATACACACACGCACATATATATA [CACACA_site4226],8.18 ± 0.71
11,CACTTTTCTGGAAAAATTCCCACATTTTTTTATTAA [GTGCAC_negctrl_site322],8.04 ± 0.53
12,AAAAAAAAAAAAAACACACACACACGCATAAATATA [CACACA_site6217],8.44 ± 0.49
13,ATTATTTAGAAATGAGCACACAAAAAGAAGAATTTT [CACACA_site7913],7.89 ± 0.71
14,TATTTATTTATTTATGCATGCATGAATAATTTTTAC [TGCATGCA_site31],8 ± 0.71
15,ATAATAATATAAAATACACACCTATTATTTTTACAA [CACACA_site6069],7.71 ± 0.6
16,ACAAGAGAAGTAATTGCACACGTTGTTTCTTTTTCT [CACACA_site35],9.07 ± 0.39
17,CCACATATACAAAACACACACACAACGTTTTAATAA [CACACA_site1978],7.92 ± 0.4
18,TCACTATAGTAATTTACACACATTTGAAGAAAATGT [CACACA_site7626],7.92 ± 0.24
19,TTATCATTTGGACACGCACACACACCGAAAAAGAAA [CACACA_site8008],8.41 ± 0.33
20,AATAATTTAAGGAATACACACAAGAAAAAAATAAGA [CACACA_site60],7.89 ± 0.73
21,TTTTTTGCTAAAAAGAGTACTAATAAAAAATTTATT [XGTACX_site5235],7.6 ± 0.51
22,TTTTTGTAATTATATTAATATATATATATATATATA [CACACA_negctrl_site198],9.08 ± 0.11
